Out of some 340,000 compounds screened, about 6,900 (2%) were called active. No stated cut-off is given here; in the data, active means inhibition above about 30%; inactive means below that, where a call was filed. Only a part is listed here, and it is no random draw. The source gives no active or inactive call for entries shown without one.

The target in the experiment is D(2) dopamine receptor (Homo sapiens) (UniProt P14416). The experiment can be described thus: HTS Assay for Allosteric Antagonists of the Human D2 Dopamine Receptor: Primary Screen for Antagonists. Further: 0% is about no effect. The settings on record: HEK293 TREx D2 cells, calcium flux, dopamine EC80; at 10 µM; stronger effect = higher value. The method, boiled down: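 Inhibition of EC80 dopamine-driven calcium flux, recorded kinetically, defines activity here; cells are a tetracycline-induced HEK293 T-REx line expressing force-coupled D2.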
Chain of UniProt P14416 (P14416 whole entry, looked up): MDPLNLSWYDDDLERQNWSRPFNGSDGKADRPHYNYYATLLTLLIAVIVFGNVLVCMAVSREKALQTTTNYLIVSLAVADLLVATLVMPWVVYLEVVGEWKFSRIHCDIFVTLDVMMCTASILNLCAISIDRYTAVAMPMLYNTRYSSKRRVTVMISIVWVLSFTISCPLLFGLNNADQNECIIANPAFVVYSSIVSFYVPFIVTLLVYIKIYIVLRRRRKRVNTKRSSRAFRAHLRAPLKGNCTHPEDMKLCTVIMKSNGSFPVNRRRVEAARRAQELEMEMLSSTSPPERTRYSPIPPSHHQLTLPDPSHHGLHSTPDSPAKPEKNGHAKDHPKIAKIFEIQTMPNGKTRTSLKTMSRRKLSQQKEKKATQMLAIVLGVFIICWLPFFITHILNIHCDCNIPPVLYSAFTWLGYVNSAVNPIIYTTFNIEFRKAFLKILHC
In general terms: Calcium assays in cells follow changes in intracellular calcium, usually with a dye or a luminescent sensor.
The inhibition is the drop in the measured response relative to a control, in per cent. As to `COc1cccc(C(=O)N(Cc2nc(-c3ccc(Cl)cc3)no2)C(C)C)c1OC`, the inhibition is -16.5%.
Consider `COc1ccc(Oc2nc3c(c(=O)n(Cc4ccc(Br)cc4)c(=O)n3C)n2C)cc1`, for which the inhibition came out at 3%.
In the case of `COc1ccc(-n2ccnc(NCCc3ccccc3)c2=O)cc1OC`, the inhibition was -0.565%.
`O=C(c1ccc(F)cc1)n1nc(-c2cccnc2)nc1NCc1ccccc1`: the inhibition is -12.5%.
For `Cc1nc2nc(CNC(=O)c3cccc(F)c3)nn2c(C)c1CCC(=O)Nc1cccc(Cl)c1`, the inhibition turned out to be 1.24%.
As to `Cc1nn(C(C)C(=O)Nc2ccccc2C(F)(F)F)c(=O)c2c1sc1ccccc12` (stereo unspecified), the inhibition came to 4.99%.
Then `CC(C)(C)c1ccc(C(=O)Nc2c(C(=O)c3ccc(F)cc3)oc3ccccc23)cc1`, with -3.08%; and `COc1ccccc1CNC(=O)COCc1cc(-c2cccs2)on1`, with -0.431%.
For the molecule `Cc1ccc(N(CC(C)C)S(=O)(=O)c2nnc(NC(=O)C(C)C)s2)cc1`, the inhibition came out at 14.5%.
In the case of `Fc1ccc(Nc2nc3ccccc3n3cnnc23)c(F)c1`, the inhibition is -16.9%.
Consider `CCOc1ccc(C(=O)Nc2cc3c(cc2N2CCCC2)n(C)c(=O)c(=O)n3C)cc1OCC`, for which the inhibition was -2.42%.
Take `CSc1ccc(CCNC(=O)CCCn2c(=O)c3cccn3c3ccccc32)cc1`: the inhibition stood at 7.26%.
Consider `CSc1ncc2c(n1)-c1ccccc1N(Cc1ccccc1)S2(=O)=O`, for which the inhibition is 16.7%.
Then `Cc1ccc2[nH]c3c(=O)n(CC(=O)Nc4ccc(Br)cc4C)ncc3c2c1`, with -17%; and `O=C1c2[nH]nc(-c3ccc(F)cc3)c2C(c2ccccc2F)N1c1ccccc1` (stereo unspecified), with -1.88%.
As for `O=C(c1cc(F)ccc1F)C1CCCN(C(=O)CCc2cnccn2)C1` (stereo unspecified), the inhibition is active: 37.9%.
On to `O=C(NCC1CCN(Cc2ccccc2F)CC1)Nc1ccc(F)c(Cl)c1`, for which the inhibition was -11.5%.
Regarding `CCCOc1ccc(C(=O)Nc2cc3c(cc2N2CCCCC2)n(C)c(=O)n3C)cc1`, the inhibition is 10.7%.
With `CC(C)c1ccc(N(CC(=O)O)S(=O)(=O)c2ccc3[nH]c(=O)c(=O)[nH]c3c2)cc1`, the inhibition was determined as 13.7%.
Take `COc1ccc(Br)cc1CNC(=O)CN1C(=O)c2cccnc2Oc2ccc(C)cc21`: the inhibition is -24.3%.
For the molecule `Cc1ccc2oc(C(=O)Nc3ccc(S(=O)(=O)Nc4nccc(C)n4)cc3)cc(=O)c2c1`, the inhibition was found to be 7.84%.
Then `Cc1ccc(S(=O)(=O)Cc2nc(-c3ccc(C(=O)NCCCOC(C)C)cc3)oc2C)cc1`, with -0.865%; and `Cc1ccc2ncc3c(-c4ccc(F)cc4)nn(CC(=O)Nc4ccccc4C)c3c2c1`, with 15.9%.
Then `Cc1ccccc1NC(=O)/C(C#N)=C/c1ccc(Cl)cc1Cl`, with 2.57%; and `CN(c1ccc(C(=O)N2CCN(Cc3ccccc3)CC2)cc1)S(=O)(=O)c1ccccc1`, with active: 60.7%; and `CCc1ccc(NCc2cc3cc4c(cc3n(CC(=O)Nc3ccccc3C)c2=O)OCCO4)cc1`, with 7.2%.
As to `Cc1cc(C)c(S(=O)(=O)N2CCCC2=O)c(C)c1N(C)S(C)(=O)=O`, the inhibition was active: 37.8%.
As to `CCOC(=O)c1ccc(NC(=O)CC(=O)Nc2ccc3nc4n(c(=O)c3c2)CCCCC4)cc1`, the inhibition was found to be 1.23%.
With `Cc1nn2c(C)c(C(=O)NCCc3ccccc3)cnc2c1-c1ccccc1`, the inhibition was 21.1%.
As to `COc1ccc(NC(=O)C2CCCN(S(=O)(=O)c3c(C)[nH]c(=O)[nH]c3=O)C2)c(OC)c1` (stereo unspecified), the inhibition is -17.1%.
As for `O=C(NCc1ccc(F)cc1)C(=O)NCC(c1ccc2c(c1)OCO2)N1CCOCC1` (stereo unspecified), the inhibition came to 2.75%.
`Cc1cccc(-c2nc3nc(C)cc(NC(C)c4ccccc4)n3n2)c1` (stereo unspecified): the inhibition was -6.23%.
Take `COc1ccc(C(=O)N(Cc2ccco2)Cc2ccc(C)o2)cc1`: the inhibition was 17.7%.
As to `COc1cc(NS(=O)(=O)c2ccc(NC(=O)c3ccc(Cl)cc3Cl)cc2)nc(OC)n1`, the inhibition is -0.217%.
For `CNC(=O)c1c(NC(=O)/C=C/c2ccccc2)sc2c1CCC2`, the inhibition is -9.99%.
As to `COCCCNC(=O)c1cnc2sc(N3CCCCC3)nn2c1=O`, the inhibition was 7.91%.
Turning to `Cc1ccc2nc(-c3ccc(NC(=O)COc4ccc(Br)cc4Br)cc3)sc2c1`, the inhibition is 13.2%.
For the molecule `CCOC(=O)c1ccc(-c2ccc3[nH]c4ccccc4c(=O)c3c2)cc1F`, the inhibition is active: 30.9%.
Regarding `COc1cc(CN(C(=O)c2ccccc2F)C2CCS(=O)(=O)C2)cc(OC)c1OC` (stereo unspecified), the inhibition is -15.1%.
With `Cc1ccc2c(CC(=O)Nc3ccc(S(=O)(=O)N4CCCCC4)cc3)coc2c1C`, the inhibition was 1.2%.
With `Cc1cccc(Nc2nc(N)nc(CN3CCN(c4ccccc4)CC3)n2)c1`, the inhibition was active: 50.8%.
As for `Cc1cccc(N2CCN(C(=O)Cn3c(-c4cccs4)cc4ccccc43)CC2)c1C`, the inhibition is 6.68%.
As to `CCCS(=O)(=O)N1CC(=O)N(c2ccc(C)c(Cl)c2)C(C)(C(=O)NC2CCCCCC2)C1` (stereo unspecified), the inhibition came to 2.45%.
On to `Oc1c(C(c2ccc(F)cc2)N2CCN(Cc3ccccc3)CC2)sc2nc(-c3ccco3)nn12` (stereo unspecified), for which the inhibition was determined as 8.48%.
As to `O=C(NCCCN1CCN(c2ccccc2F)CC1)C1CCC(=O)N1C1CCCCC1` (stereo unspecified), the inhibition is active: 55.7%.
For `CN1C(=O)C2(c3ccccc31)N(c1cccc(C(F)(F)F)c1)C(=O)CS2(=O)=O` (stereo unspecified), the inhibition was 7.57%.
Turning to `COc1ccc(N(CC(=O)Nc2cccnc2)S(=O)(=O)c2ccccc2)cc1Cl`, the inhibition is active: 31.1%.
For the molecule `CCN1CCN(c2ncc3c(n2)CCN(Cc2ccccc2C)C3)CC1`, the inhibition is 2.93%.
In the case of `CCC(=O)N1CCc2cc(CNS(=O)(=O)c3ccc(CC(C)C)cc3)ccc21`, the inhibition was 3.04%.
`CC(C)CCNC(=O)C1CCN(C(=O)c2cc3sccc3n2Cc2ccc(Cl)cc2)CC1`: the inhibition was -14.6%.
As for `COc1ccc(-c2nc(CS(=O)CC(=O)NCCc3ccc(Cl)cc3)c(C)o2)cc1OC` (stereo unspecified), the inhibition is -0.0575%.
Turning to `CCc1ccc(-n2nc(CO)c(C(=O)NC)n2)cc1`, the inhibition was -6.68%.
Take `Cc1ccc(CS(=O)(=O)c2ncc(Cl)c(C(=O)Nc3nnc(C(C)C)s3)n2)cc1`: the inhibition came to 3.61%.
For `CCOc1ccc(/C=C/C(=O)Nc2ccc3nc(N(CC)CC)cc(C)c3c2)cc1OC`, the inhibition came out at 4.57%.
`O=C(CCNS(=O)(=O)c1ccc2c(c1)CCN2C(=O)C1CC1)N1CCN(c2cccc(Cl)c2)CC1`: the inhibition is -7.44%.
Then `CCc1ccc(C2c3c(-c4ccccc4O)n[nH]c3C(=O)N2Cc2cccnc2)cc1` (stereo unspecified), with 15.3%; and `CCC(=O)N1c2ccc(S(=O)(=O)CCC(=O)Nc3ccc(OC)cc3OC)cc2CC1C` (stereo unspecified), with 16.3%; and `Cc1ccc(Cl)cc1-n1nnc(-c2nc(-c3ccc4c(c3)OCO4)no2)c1C`, with -4.03%.
Then `COc1ccc(Nc2nn3c(=O)c4cc5c(cc4nc3s2)OCO5)c(OC)c1`, with -1.48%; and `Cc1cccc(N(C)S(=O)(=O)c2cc(-c3cnc(C4CC4)o3)ccc2C)c1`, with 25.8%; and `CCc1c(C)sc2c1CCN(Cc1ccc(C#N)cc1)C2c1ccccc1` (stereo unspecified), with 16.3%.
